This is an account of results in PMC4336329 (PLoS ONE, 2015).

The structures appear in SMILES notation. Hit rate of the full screen: of about 310,000 compounds, about 2,200 (0.71%) showed an effect of 50% or more. Effects have a minus sign here. Some of the results follow.

For this test, the target named is human ether-à-go-go-related gene (hERG) potassium channel (human, UniProt Q12809). The experiment in a line: primary screen, population patch clamp on CHO cells stably expressing hERG.
Sequence of human ether-à-go-go-related gene (hERG) potassium channel (Q12809 whole entry, looked up): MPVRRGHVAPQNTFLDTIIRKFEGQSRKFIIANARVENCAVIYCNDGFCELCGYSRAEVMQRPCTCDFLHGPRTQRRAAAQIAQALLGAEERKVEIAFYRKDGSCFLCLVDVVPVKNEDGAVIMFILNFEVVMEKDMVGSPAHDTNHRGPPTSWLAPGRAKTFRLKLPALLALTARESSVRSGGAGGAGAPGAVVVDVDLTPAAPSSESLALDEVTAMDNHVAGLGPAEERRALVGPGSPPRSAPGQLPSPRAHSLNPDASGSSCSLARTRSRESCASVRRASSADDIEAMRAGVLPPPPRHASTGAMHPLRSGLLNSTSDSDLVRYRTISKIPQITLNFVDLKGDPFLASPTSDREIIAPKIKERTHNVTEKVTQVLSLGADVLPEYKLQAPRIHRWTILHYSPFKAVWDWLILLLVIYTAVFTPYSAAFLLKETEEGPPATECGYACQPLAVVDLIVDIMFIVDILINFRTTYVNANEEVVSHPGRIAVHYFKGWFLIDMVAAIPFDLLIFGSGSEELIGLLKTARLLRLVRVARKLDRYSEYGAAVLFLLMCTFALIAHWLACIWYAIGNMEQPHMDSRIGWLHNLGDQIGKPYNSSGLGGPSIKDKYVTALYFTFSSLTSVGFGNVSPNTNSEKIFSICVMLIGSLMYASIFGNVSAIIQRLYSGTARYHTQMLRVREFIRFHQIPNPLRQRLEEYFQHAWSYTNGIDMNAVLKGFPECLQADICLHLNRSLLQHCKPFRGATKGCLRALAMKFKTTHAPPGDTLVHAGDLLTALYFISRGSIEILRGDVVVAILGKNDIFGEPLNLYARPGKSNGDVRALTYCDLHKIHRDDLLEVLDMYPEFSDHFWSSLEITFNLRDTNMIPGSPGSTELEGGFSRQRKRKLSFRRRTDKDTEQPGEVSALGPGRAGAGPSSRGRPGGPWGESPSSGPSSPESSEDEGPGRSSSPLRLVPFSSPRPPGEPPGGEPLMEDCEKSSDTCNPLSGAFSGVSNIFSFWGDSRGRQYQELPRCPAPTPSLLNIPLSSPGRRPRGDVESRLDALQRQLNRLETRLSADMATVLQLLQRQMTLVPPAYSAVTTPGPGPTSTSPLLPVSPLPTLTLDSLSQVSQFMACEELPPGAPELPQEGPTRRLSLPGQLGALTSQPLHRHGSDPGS
Turning to `O=C(CN1CCc2ccccc21)Nc1ccc2c(c1)OCO2`, the “hERG current change (%, negative = inhibition) at 1uM” value is listed as 14.3%.
As to `Oc1ccc(C=Nc2cccc3ccccc23)c(O)c1`, the “hERG current change (%, negative = inhibition) at 1uM” value was determined as 16.1%.
The same measure for `C/C=C/c1ccc(OCCCCOc2c(OC)cccc2OC)c(OC)c1`: 6.35%.
The same measure for `O=C(Nc1cc(Cl)ccc1Cl)C1Cc2ccccc2O/C1=N\O` (centres unmarked): 14.2%.
Then `C=CCn1c(SCc2nc3sc4c(c3c(=O)[nH]2)CCCC4)nc2ccccc2c1=O`, with -0.46%.
Regarding `CC(=O)N1CCN(c2ccc(NC(=O)c3ccc(Br)o3)cc2Cl)CC1`, the “hERG current change (%, negative = inhibition) at 1uM” value is -1.25%.
Regarding `CC(C)Cn1c(=O)c2ccccc2n2c(CCC(=O)NCc3ccccn3)nnc12`, the “hERG current change (%, negative = inhibition) at 1uM” value was determined as 18.6%.
The same measure for `Cc1ccc(-c2cc(C(=O)NN3CCOCC3)c3cc(Br)ccc3n2)o1`: 18%.
The same measure for `CS(=O)(=O)c1ccc(C(=O)NCC2(N3CCCCC3)CCCCC2)cc1`: 5.88%; for `COc1ccc(/C=C2\SC(=S)N(CCCC(=O)Nc3cc(C)on3)C2=O)cc1OC`: 10.2%.
The same measure for `CCOC(=O)N1CCC(NS(=O)(=O)c2ccc3c(c2)oc(=O)n3C)CC1`: 5.7%.
As to `O=C(Nc1ccc2nn(-c3ccccc3)nc2c1)c1ccc2c(c1)OCCO2`, the “hERG current change (%, negative = inhibition) at 1uM” value is on record as 17.4%.
Then `CCc1ccc2[nH]c(=O)c(CN(Cc3ccccc3OC)Cc3nnnn3Cc3ccco3)cc2c1`, with -4.81%.
Then `CCn1ncc(/C=N/O)c1C`, with 10.5%.
Then `COc1ccccc1C1SCCN1S(C)(=O)=O` (centres unmarked), with -2.83%; and `CCCc1cc(C(=O)OC)c2ccccc2n1`, with 3.72%.
For the molecule `CCCCN(C(=O)c1c(C)noc1C)c1c(N)n(CCC)c(=O)[nH]c1=O`, the “hERG current change (%, negative = inhibition) at 1uM” value is reported as 5.67%.
With `O=C(O)CCC(=O)NNC(=O)CCC1CCCCC1`, the “hERG current change (%, negative = inhibition) at 1uM” value was found to be 12.2%.
Turning to `CC(C)OP(=O)(c1ccc(N(C)C)cc1)C(O)c1ccc(Br)cc1` (centres unmarked), the “hERG current change (%, negative = inhibition) at 1uM” value is on record as 14.6%.
As for `CCc1nc(Nc2cccc(OC)c2)c2oc3ccccc3c2n1.Cl`, the “hERG current change (%, negative = inhibition) at 1uM” value came to 13.3%.
Then `Cc1ccc(S(=O)(=O)NC(=O)Nc2ccccc2)cc1`, with 6.92%.
The same measure for `COc1ccc(Cn2nnnc2CN(Cc2cc3cc(C)ccc3[nH]c2=O)C2CCCC2)cc1`: 17.7%; for `Cc1cc(C)c2nc(N3CCC(C(=O)NCC4CCCO4)CC3)sc2c1` (centres unmarked): 10.5%; for `Cc1ccc(C)c(S(=O)(=O)N2CCCC2CNC(=O)C(=O)NCCc2ccccc2)c1` (centres unmarked): 3.99%.
The same measure for `O=C(O)c1cccc(NC(=O)c2cccc(NC(=O)C3CCCO3)c2)c1` (centres unmarked): 9.91%; for `O=C(/C=C/Nc1ccccc1O)c1ccco1`: 8.53%; for `O=C(CSc1nc2ccccc2n1S(=O)(=O)c1ccccc1)N1CCCC1`: 4.02%.
Turning to `Cc1cccc(N2CCN(C(=O)COc3cc(=O)n(C)c4ccccc34)CC2)c1C`, the “hERG current change (%, negative = inhibition) at 1uM” value was -23.4%.
Then `CCOC(=O)c1ccc(N(CC(=O)NC2CCCCC2)C(=O)CNC(=O)c2ccco2)cc1`, with 0.982%; and `CN(C(=O)CSc1nnc(N)s1)C1CCCCC1`, with 12.7%.
The same measure for `COc1ccc(OC)c(NC(=O)CCN2CCN(C)CC2)c1.Cl`: -3.28%; for `O=C(c1ccccc1)N1CCC(O)(c2ccc3c(c2)OCO3)CC1`: 7.78%.
Then `N#Cc1c(Nc2cccc(F)c2)sc2c(O)cc(=O)[nH]c12`, with 11.4%; and `Cc1ccc(NC(=O)c2cc(C)nn2-c2ccccc2)cc1`, with 3.19%; and `COCCn1c(C)cc(/C=C2/NC(=O)N(c3cccc(Cl)c3)C2=O)c1C`, with 10.6%.
As to `CCCCN1C(=O)/C(=C2/Sc3ccc(OC)cc3N2CC)SC1=S`, the “hERG current change (%, negative = inhibition) at 1uM” value stood at 11.2%.
Then `CC1CN(C(=S)NC(=O)c2ccccc2)CC(C)O1` (centres unmarked), with 19%; and `CC(O)CNCc1ccccc1C(F)(F)F.Cl` (centres unmarked), with 7.24%; and `CC(C)Sc1nc2c(cnn2-c2ccc(Cl)cc2)c(=O)[nH]1`, with 9.95%.
Then `O=C(CC1C(=O)NCCN1C/C=C/c1ccccc1)NCCc1cccnc1` (centres unmarked), with 9.43%; and `COc1ccc(S(=O)(=O)N(CC(=O)N2CCOCC2)c2ccc(F)cc2)cc1OC`, with -3.03%.
On to `COc1ccc(NC(=O)CN2C(=O)c3ccccc3Sc3ccc(C(=O)N4CCOCC4)cc32)c(OC)c1`, for which the “hERG current change (%, negative = inhibition) at 1uM” value is 1.43%.
Then `O=C(CSc1nc2ccccc2s1)Nc1cc(C(=O)O)cc(C(=O)O)c1`, with 14.7%; and `CC(=O)Nc1ccc(S(=O)(=O)N2CCc3ccccc3C2)cc1`, with 18.6%.
As to `CCC1CCCCN1C(=O)CSc1nc(C)cc(C)n1` (centres unmarked), the “hERG current change (%, negative = inhibition) at 1uM” value is reported as -6.99%.
The same measure for `COc1ccccc1CN1CCN(C(=O)COc2ccccc2)CC1`: 8.51%; for `CCc1nnc(NC(=O)Cn2ccc(C(F)(F)F)n2)s1`: 11.2%; for `S=C(NCC1CCCO1)Nc1ccccc1` (centres unmarked): 16.4%.
With `c1cc2c(cc1CN1CCOCC1)OCO2`, the “hERG current change (%, negative = inhibition) at 1uM” value is 17.6%.
For `COc1ccc(NC(=O)COC(=O)Cc2ccc(Br)cc2)cc1`, the “hERG current change (%, negative = inhibition) at 1uM” value came to 2.78%.
The same measure for `O=C(N/N=C/c1coc2ccccc2c1=O)c1ccncc1`: 19.5%.
The same measure for `COc1ccc(-c2cnn3c(N)c(S(=O)(=O)C(C)(C)C)cnc23)cc1`: 8.28%; for `CCCn1c(SCC(=O)NC2CCCCC2C)n[nH]c1=O` (centres unmarked): 12%; for `O=C(CCl)NCc1cc(-c2ccc(Cl)cc2)no1`: 4.56%.
As for `CCOC(=O)N1CCN(C2CC(=O)N(c3ccc(Oc4ccccc4)cc3)C2=O)CC1` (centres unmarked), the “hERG current change (%, negative = inhibition) at 1uM” value is on record as -1.74%.
Then `C/C=C(\C)C(=O)NCCN1C2=NC[C@@H](Cc3ccccc3)N2C[C@H]1Cc1ccc(O)cc1`, with 13.4%.
Then `Cc1ccc(S(=O)(=O)N2CCC(C(=O)N3CCN(Cc4ccccc4)CC3)CC2)cc1`, with 4.88%; and `CC(=O)C(=Cc1ccc(C(=O)O)cc1)C(C)=O`, with 10.8%.
Then `CCCCOc1ccc(NC(=O)[C@@H]2CCCN2C(=O)C2CCN(S(=O)(=O)c3ccc(C)cc3)CC2)cc1`, with 1.97%.
